Among all 94,000 compounds or so, about 6,200 (6.6%) were called active. Inconclusive results, whose numbers are uncertain, are shown with a selection of clear calls. The call rests on the fitted dose curve; in most records, active means well fitted inhibition curve with a large enough effect; inconclusive means small, poorly fitted or top-dose-only effect; inactive means flat fitted curve, though single readings scatter. Potencies of inconclusive entries are doubtful fits and often do not repeat.
assay: Cytotoxic Profiling in HEK 293 Cell Line of Diverse Libraries Using Quantitative High-Throughput Screening; conditions: HEK 293 viability, ATP luminescence (CellTiter-Glo), 48-72 h; activity change, negative = cytotoxicity: at 115 µM (top of the series) unless noted; series mostly up to 115 µM; further: nearly all actives have a fitted effect of over 60% in size
Method in brief: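 Cytotoxicity was scored by loss of ATP-coupled luminescence (CellTiter-Glo) in HEK 293 cells. Compound treatment ran 48 or 72 hr at 37 degree Celsius, 5% CO2, 95% humidity.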
On the % scale 0 is the no-effect control and ±100 the full control effect; potency means the concentration at half of the fitted maximal effect; tags describe the fitted curve by direction and shape.

Row | Compound | Potency | activity change, negative = cytotoxicity
1 | CN(CC(=O)N1CCC(CCOc2ccc(F)cc2)C1)S(=O)(=O)c1cccs1 (stereo unspecified) | active: 50.1 µM | 
2 | Cc1c(CC(=O)NCC(F)(F)F)c2c(n1Cc1ccccc1F)CCCC2=O |  | inactive: -24.6%
3 | Cc1ccc([S+](=O)([O-])N2CCCC2C(=O)N2CCC3(CC2)CC(=O)Nc2ccccc2O3)cc1 (stereo unspecified) | inconclusive: 70.8 µM [inhibitor, partial curve, poor fit] | 
4 | CSc1ccc(CN2CCC(CO)(CN3CCCC3)CC2)cc1 | inconclusive: 50.1 µM [inhibitor, partial curve, poor fit] | 
5 | CN(C)CCCC(=O)N1Cc2ccccc2CC2(CCCCN2Cc2ccccc2)C1 (stereo unspecified) | active: 79.4 µM | 
6 | Cc1cc(Nc2ncncc2-c2nc(-c3ccccc3)no2)ccc1F |  | inactive: -14.4%
7 | COc1ccc(Cn2c(=O)c(C(=O)N3CCN(C(=O)c4ccccc4Cl)CC3)nc3cccnc32)cc1 |  | inactive: -20%
8 | CN(C)c1cccc(Nc2cc3c(cn2)NCCN(Cc2ccccc2)C3)c1 | active: 63.1 µM | 
9 | COCCCNc1cc(-c2cccc(C(F)(F)F)c2)nc2c(C)noc12 | active: 79.4 µM | 
10 | COc1ccc2[nH]c3c(c2c1)CCN(C)C31CCN(C(=O)COc2ccc(F)cc2)CC1 | inconclusive: 17.8 µM [inhibitor, full curve, poor fit] | 
11 | O=C1N(CC2CC2)CCOC12CCN(Cc1ccc(F)c(Cl)c1)CC2 | inconclusive: 89.1 µM [inhibitor, partial curve] | 
12 | CN(C)CCCC(=O)N1Cc2ccccc2CC2(CCCCN2CC2CCNCC2)C1 (stereo unspecified) |  | inactive: -5.19%
13 | CC(=O)NC1CCN(c2nc3ncccc3o2)CC1 | inactive | 
14 | COc1ccccc1Nc1ccnc(N2CCN(C(=O)C3CCCC3)CC2)n1 | inconclusive: 10 µM [inhibitor, full curve, poor fit] | 
15 | Cc1ccc(Cn2c(C3CCN(C(=O)Cc4ccccc4)CC3)n[nH]c2=O)cc1 |  | inactive: -7.13%
16 | COc1ccccc1-c1cccc(C(=O)N2CCC[C@H]2C(=O)N2CCCC2)c1 | inconclusive: 100 µM [inhibitor, single point] | 
17 | Cc1ccc(NC(=O)N2CC3CC(C2)[C@H]2CCCC(=O)N2C3)cc1 (stereo partly specified) |  | inactive: -2.5%
18 | COc1ccc(-c2noc([C@@H]3C[C@H](NCc4ccccn4)CN3C)n2)cc1 | active: 100 µM | 
19 | Cc1ccc(CN2CCn3c(nnc3[C@@H]3C[C@@H](O)CN3Cc3cccnc3)C2)s1 |  | inactive: 2.89%
20 | O=C(C1CCCN(c2ccnc3ccnn23)C1)N1CCCCC1 (stereo unspecified) |  | inactive: -26.9% [at 172 µM]
21 | O=C(c1ccoc1)N1CCC(CCOc2ccc(F)cc2)C1 (stereo unspecified) | inconclusive: 79.4 µM [inhibitor, partial curve, poor fit] | 
22 | CC#CCn1cc2c3c(cccc31)[C@H](CC(C)C)N[C@H](C(=O)N1CCOCC1)C2 | inconclusive: 70.8 µM [inhibitor, partial curve, poor fit] | 
23 | O=C(OCc1ccccc1)N1CCOCC12CCN(Cc1ccc(O)cc1)CC2 | inconclusive: 100 µM [inhibitor, partial curve, poor fit] | 

Row | Compound | Potency | activity change, negative = cytotoxicity
24 | O=C(C1CCCN(C(=O)C2CC2)C1)N1CCC(N2CCOCC2=O)CC1 (stereo unspecified) |  | inactive: -2.06%
25 | CC1(COc2cccnc2)COc2ccc(C(=O)NCC3CCOCC3)cc2N1 (stereo unspecified) | inconclusive: 89.1 µM [inhibitor, partial curve] | 
26 | O=C(NCC1CCCCC1)C1CCCN1C(=O)c1cccc(-c2cccnc2)c1 (stereo unspecified) |  | inactive: -11.1%
27 | COc1cccc(Nc2cc3c(cn2)CN(C(C)=O)CCN3)c1 | inconclusive: 8.91 µM [inhibitor, full curve, poor fit] | 
28 | Cc1ccsc1C(=O)NC1CCCN(c2cc(-c3ccc(F)cc3)[nH]n2)C1 (stereo unspecified) | inconclusive: 39.8 µM [inhibitor, partial curve, poor fit] | 
29 | CC(C)=CCC1(CO)CCCN(Cc2[nH]c3ccc(F)cc3c2C)C1 (stereo unspecified) | active: 20 µM | 
30 | Cc1ccc(-c2cc3c(=O)n(CCNC(=O)Cc4ccccc4Cl)ccn3n2)cc1C | inconclusive: 50.1 µM [inhibitor, partial curve, poor fit] | 
31 | C=CCN1CC(C)(C)CN(S(=O)(=O)c2ccc(C)cc2)CC1=O |  | inactive: -7.69%
32 | O=C(N1CCC2(CC1)CC(Cc1nc(-c3cccnc3)no1)CCO2)C1(c2ccccc2)CC1 (stereo unspecified) | inconclusive: 56.2 µM [inhibitor, partial curve, poor fit] | 
33 | CCOc1ccccc1CN1CCC2(CCN(C(=O)Cc3cccc(Cl)c3)CC2)Oc2ccccc21 |  | inactive: -18.1%
34 | Cn1cc(CN2CC3(COCC(=O)N(Cc4cccc(OC(F)(F)F)c4)C3)C2)cn1 | inconclusive: 89.1 µM [inhibitor, partial curve, poor fit] | 
35 | O=C1Nc2ccccc2C12CCN([S+](=O)([O-])c1ccsc1)CC2 | active: 44.7 µM | 
36 | COc1ccc(-c2cc(N3CCC(NC(=O)c4ccc(N(C)C)cc4)C3)n[nH]2)cc1 (stereo unspecified) | active: 70.8 µM | 
37 | O=C1c2cnc(-c3ccoc3)nc2OCCN1Cc1ccc(F)cc1F | inconclusive: 100 µM [inhibitor, partial curve] | 
38 | COc1ccccc1-n1c(=O)c(C(=O)N2CCN(C(=O)c3ccc(F)cc3)CC2)nc2cccnc21 |  | inactive: -8.87%
39 | CCC(=O)N1CCCC(c2nc(-c3ccccc3)no2)CCNC(=O)CC1 (stereo unspecified) |  | inactive: -15.8%
40 | CCCN(CC1CCOC1)C(=O)Nc1ccccc1Br (stereo unspecified) |  | inactive: -4.68%
41 | Cc1cnc(CCNC(=O)Nc2ccc3c(c2)OCCO3)n1C1CCC1 | inconclusive: 63.1 µM [inhibitor, partial curve, poor fit] | 
42 | CNC(=O)[C@H]1C[C@]2(CCCCN(CCO)C2=O)N(C(=O)Cc2cccs2)[C@H]1c1ccco1 | active: 35.5 µM | 
43 | O=C(c1ccc(Cl)cc1)N1CCC2(CC1)C(=O)NCN2c1ccccc1 | inconclusive: 100 µM [inhibitor, partial curve, poor fit] | 
44 | Cc1cc(CN(C)Cc2cn(-c3cccc(F)c3)nc2-c2ccc(C)o2)n[nH]1 | active: 44.7 µM | 
45 | O=C(NCc1ccc2c(c1)OCO2)c1cnc2c(c1)N(Cc1ccccc1)CCC2 | inconclusive: 79.4 µM [inhibitor, partial curve] | 
46 | COc1cccc(-c2cc(C(=O)NCc3ccc(C(F)(F)F)cc3)c3cnn(C)c3n2)c1 |  | inactive: -8.13%

Source: PubChem BioAssay AID1345083 (National Center for Advancing Translational Sciences (NCATS), 2018)
